The supplement of paper PMC11417369
This is one part of the list.

System: PF3D7_0420300 AP2 domain 1 (GST-tagged)
Experiment: gcPBM binding intensity (ln(normalized median fluorescence intensity)); higher = stronger DNA binding
Summary of the method: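 GST-tagged P. falciparum DNA-binding domains produced in E. coli were incubated for 1 h on an Agilent 4 × 180k array of primer-extended double-stranded 36-bp intergenic genomic probes with negative controls. Binding intensity is the highest Masliner-normalised natural-log median intensity across replicate spots of either probe orientation, with bound protein detected by Alexa488 anti-GST antibody at 488 nm.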

Sequence | gcPBM binding intensity (ln)
TATATATATTCTTTGTGTACTCATATAAGGGTAGAA [XGTACX_site8121] | 9.13
AATCAATATTATATATGTACTTATTTTCACTTTTGC [XGTACX_site1775] | 9.26
TTTTTAGAAAAGGTTATAAAAAATTAATTGAAAAAA [GTGCAC_negctrl_site289] | 8.7
TTGTCATTATTATATTGTACAATAAGTATTAAAGAA [XGTACX_site1205] | 9.18
ATTTTAATTTTGTATACACACATTTGAATTATTAAT [CACACA_site3528] | 9.54
AAATAATACATTCGTACTACACATATATATTAAATA [XGTACX_site7806] | 9.33
AATATATACATATATACACACACATATATATATATA [CACACA_site8907] | 9.75
TAAAATGTTATAAGAACATGCAATTCCTTTTATTAT [TGCATGCA_site408] | 9.03
ATATATTATATTATATGTACTTAAAAAAGTGCAAAG [XGTACX_site318] | 9.03
TATATTCAATTTTTGGTGCGTAAATTAATACAAACA [GTGCAC_site9764] | 9.06
CGGACATACTAACGGACACACGTAAGAAAAAAAAAG [CACACA_site4504] | 9.48
ATGCACGGAAAAATATGTACTTAATTTCAATAATAT [XGTACX_site8311] | 9.28
TATATGTCCATATTTCCACACACATATTATTTTTAT [CACACA_site9266] | 9.81
TTTTTTCAATAAATAATCGTATATTGAATAATAATA [CACACA_negctrl_site822] | 8.85
AGAGAGAACGGTATAACATGCGATAAATTTTAGAAG [TGCATGCA_site357] | 9.44
TATTAATTTTTCCTTTTTTTTTTACCCCTTTGTACA [CACACA_negctrl_site947] | 9.19
TATATATTTTATATATGTACATATTTATATGTTTCT [XGTACX_site1818] | 9.19
CGCGAACATACATACACACACATATATATATATGTA [CACACA_site205] | 9.76
TTTTTTTTTTTTTGAACACACATTATTAACTTTTAT [CACACA_site6281] | 9.19

Sequence | gcPBM binding intensity (ln)
AAAAAAAAGTTATATACACACATATAAATATAAATA [CACACA_site6683] | 9.56
CATGTAAAATATTAAAGTACATGATTATATATATAT [XGTACX_site7486] | 9.26
AAAAATATTAAAAGGCGTACAATACCTGTATGCAAC [XGTACX_site6069] | 9.38
AGCTAAAATATTTTTGCACACGATTTTTTTTTTTTT [CACACA_site1140] | 9.29
TATATTTATATAATATGTACATATTTTTTAATATTT [XGTACX_site3834] | 9.03
TATTTTATTTTCCGAAGTACAAAAGCAAAAAAAAAC [XGTACX_site103] | 9.19
ATAATATGAGTCCCACAAAATAGACCATACGAATAT [CACACA_negctrl_site50] | 9.4
TATAAATTTATACCAGTGCATTTTGAAATATATATA | 9.2
TGGAACCATAAAAAGTGTACACATATAAAAAATATG [XGTACX_site96] | 9.35
TTTTTTTTTTTCTCCATACACACTTGATAAAACTTT [CACACA_site615] | 9.29
ATTTTTTTTTTTTGTACATACCACATATACAAAACA [CACACA_negctrl_site1240] | 9.25
TAATTGATTCTTCACCGTACTCACACATATATATAT [XGTACX_site6530] | 9.53
ATATATTATAAATGTAGTACCGTTACATAGTCATAG [XGTACX_site390] | 9.35
CACACCACCAACAAAAGTACATACATATATATATAT [XGTACX_site5781] | 9.27
TATATATTGCCCTTCACACACACACCCATATATATA [CACACA_site2493] | 10.2
ACTACGAGTCGTAGAGTGCAGTCTGGAGAAAAGTAC [GTGCAC_site9769] | 9.16
ATCAAGCACGAACACACACACACACGCACGCCCACA [CACACA_site6308] | 10.2
TATTTATACATACGTACACACAAATATTAAAATATA [CACACA_site7004] | 9.32
AAAAAAAAAAAAAAATCACACATTGGTTAAATATTA [CACACA_site5344] | 9.13

Sequence | gcPBM binding intensity (ln)
CTATCAAATAATAGCAAACACACAAAAAATAAAAAA [CACACA_site4147] | 9.73
ATTCATACATGCACACGTACATATTTAAATATAAAA [XGTACX_site8388] | 9.41
ATTTTTTATGAAAACATAAAAAAATGAGATAACCAT [CACACA_negctrl_site894] | 9.17
TTTTGATTTTTTTATTGTACCCATAAACATATAATT [XGTACX_site5202] | 9.22
GGTATTTATGGACGCGTGCACACACATATGAACAAA | 9.7
TATTTTTGAAGTTGCACACACAAAAATAAAAAGTAT [CACACA_site418] | 9.52
TACAAACAATTAAACAAACACACATATACATGTATA [CACACA_site2061] | 9.68
TCATGTTTTTAATATTGTACTCTCATTTTATATATC [XGTACX_site8412] | 9.49
ATATTTACTCACGTCTTGCACTGAGCAAGCATTATA | 9.02
AGCTATTAATTTATTACATGCAAGATTAAAAGACTA [TGCATGCA_site281] | 8.99
ATATATATATATAATTGTACATTTTTAACCTTAACA [XGTACX_site7910] | 9.21
TTTTATGTTTTTTTTATAAATATTAAAATTCTATAT [CACACA_negctrl_site1477] | 8.87
ATATTGTTATATGTTTGTACATATTTTTTATATTTT [XGTACX_site6834] | 9.59
AATGTTAAAAATGAAAGTACATGGAATTTATTATTT [XGTACX_site4095] | 9.31
AAAAAAAAAAAATACACACACACATATAAATATGTA [CACACA_site6900] | 10
GTTTATATATGCTTATAATTTTCAATTGTTTTACAA [TGCATGCA_negctrl_site384] | 9.22
GACATTAATTATTTGACACACGACTGGGTGGTGATT [CACACA_site306] | 9.37
TGATTCAATTTATGCACACTAAAAATTAATTATATT [CACACA_site271] | 9.22
TTTTTTTTTTATACATGTACTTAAAAGTAGCACCTT [XGTACX_site1855] | 9.01
